Screen size: about 310,000 compounds; about 2,200 (0.71%) showed an effect of 50% or more. Effects have a minus sign here. This is one part of the list.
What follows are compounds tested against human ether-à-go-go-related gene (hERG) potassium channel (human, UniProt Q12809) (assay: primary screen, population patch clamp on CHO cells stably expressing hERG).
human ether-à-go-go-related gene (hERG) potassium channel, sequence (Q12809 whole entry, looked up): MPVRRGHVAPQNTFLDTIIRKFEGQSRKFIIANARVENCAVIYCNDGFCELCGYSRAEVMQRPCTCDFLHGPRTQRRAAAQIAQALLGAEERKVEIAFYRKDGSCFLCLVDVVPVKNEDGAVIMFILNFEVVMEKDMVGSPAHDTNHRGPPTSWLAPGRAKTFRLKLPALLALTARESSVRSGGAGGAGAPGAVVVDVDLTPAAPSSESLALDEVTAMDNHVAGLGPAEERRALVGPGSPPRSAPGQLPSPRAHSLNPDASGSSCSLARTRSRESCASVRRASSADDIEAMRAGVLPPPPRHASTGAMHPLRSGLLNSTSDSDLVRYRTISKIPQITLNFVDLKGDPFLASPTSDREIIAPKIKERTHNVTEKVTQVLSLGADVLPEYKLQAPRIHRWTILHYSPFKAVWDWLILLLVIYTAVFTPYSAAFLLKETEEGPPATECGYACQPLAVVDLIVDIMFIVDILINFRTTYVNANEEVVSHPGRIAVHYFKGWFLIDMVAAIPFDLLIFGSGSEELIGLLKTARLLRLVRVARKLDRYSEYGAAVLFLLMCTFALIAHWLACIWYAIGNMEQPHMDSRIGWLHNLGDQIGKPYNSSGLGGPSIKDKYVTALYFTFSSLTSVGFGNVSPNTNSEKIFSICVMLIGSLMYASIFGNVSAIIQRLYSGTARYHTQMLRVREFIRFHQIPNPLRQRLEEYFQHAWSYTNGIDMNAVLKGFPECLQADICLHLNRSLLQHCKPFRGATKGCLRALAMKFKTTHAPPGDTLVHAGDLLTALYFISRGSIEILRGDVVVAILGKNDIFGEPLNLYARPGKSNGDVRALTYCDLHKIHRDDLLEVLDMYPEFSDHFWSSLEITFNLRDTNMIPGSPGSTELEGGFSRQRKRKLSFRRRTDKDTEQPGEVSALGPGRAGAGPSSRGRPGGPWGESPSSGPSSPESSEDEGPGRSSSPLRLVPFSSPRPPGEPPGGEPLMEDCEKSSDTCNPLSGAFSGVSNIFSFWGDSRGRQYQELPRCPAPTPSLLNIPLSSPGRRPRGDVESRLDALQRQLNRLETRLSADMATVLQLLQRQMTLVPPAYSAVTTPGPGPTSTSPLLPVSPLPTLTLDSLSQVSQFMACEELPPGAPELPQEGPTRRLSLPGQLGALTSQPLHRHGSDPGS

Row | SMILES | hERG current change (%, negative = inhibition) at 1uM [%]
1 | CN(Cc1ccc(OC(F)F)cc1)Cc1nc2c(Br)cc(Br)cc2c(=O)[nH]1 | 4.74
2 | COc1ccc(OC)c(NC(=O)CN2C(=O)NC3(CCOc4ccccc43)C2=O)c1 (centres unmarked) | 12
3 | CN1C(=O)C(C)(C)c2cc(S(=O)(=O)NCC(=O)NCc3ccccc3)ccc21 | 11.6
4 | CCOC(=O)C1CCN(C(=O)CCCn2c(=O)c3cccn3c3cccnc32)CC1 | -20.4
5 | CO/N=C/C(c1ncc(C(F)(F)F)cc1Cl)S(=O)(=O)c1ccccc1 (centres unmarked) | 10.9
6 | CC(C)C(NC(=O)c1ccc(F)cc1)C(=O)N1CCC1 (centres unmarked) | 9.09
7 | CC1(C)Cc2c(sc(NC(=O)C(=O)N3CCOCC3)c2C(N)=O)CO1 | 16.4
8 | Cl.O=C(Cn1c(NCCCO)nc2ccccc21)c1ccc(Cl)cc1Cl | -6.22
9 | CN(CC(=O)N1CCc2ccccc2C1)S(=O)(=O)c1ccc2c(c1)c(=O)n(C)c(=O)n2C | 2.05
10 | CC(C)(C)N1C(=O)Cc2c1nc(N)c1c(N)nc(N3CCCCC3CO)c(C#N)c21 (centres unmarked) | 2.43
11 | O=C(NCc1ccccc1)c1nnc(CS(=O)(=O)c2ccccc2)o1 | -2.45
12 | CC(C)c1ccc2[nH]c(O)c(N=NC(=O)c3cccc(S(=O)(=O)Nc4cccc(Cl)c4)c3)c2c1 | 7.59
13 | Cc1ccc(Nc2ccc(C(=O)NC3CCCCC3)cn2)cc1 | 1.04
14 | CCCCn1c(N)c(N(Cc2ccccc2OC)C(=O)c2c(CC)noc2C)c(=O)[nH]c1=O | 10.8
15 | Cc1ccc(S(=O)(=O)NC(=O)NC(=O)N(C)S(=O)(=O)c2ccc(C)cc2)cc1 | 12
16 | Cl.OC(COCC1COc2ccccc2O1)CN1CCN(c2ccccc2)CC1 (centres unmarked) | -24.7
17 | c1ccc(Nc2nc3ccccc3s2)cc1 | 18.8
18 | CCCCn1c(=O)n(C)c(=O)c2c(C(F)(F)F)cc(-c3ccncc3)nc21 | -4.76
19 | O=C(NC1CCN(Cc2ccc(Cl)cc2)CC1)c1cn(-c2ccccc2)nc1-c1cccnc1 | -17.7
20 | O=C(Cc1ccc(F)cc1)N1CCC(CC2CC(c3ccc(Cl)cc3)=NO2)(C(=O)NCC2CCCCC2)CC1 (centres unmarked) | -9.21
21 | O=C(O)c1ccccc1SCc1nc2ccccn2c1Br | 12.3
22 | CCCCOC(=O)Nc1cccc(C(C)=O)c1 | 0.259
23 | CN(C)C(=O)N(CCCN1CCOCC1)Cc1cccc2ccccc12 | 11.9

Row | SMILES | hERG current change (%, negative = inhibition) at 1uM [%]
24 | COCCNC(=S)NC1CC2CCCC(C1)N2Cc1ccco1 (centres unmarked) | -1.47
25 | Cc1ccc(-n2ncc3c(=O)n(CC(=O)N4CCN(c5ccccc5F)CC4)cnc32)cc1C | 18.5
26 | CC/C=C/C(=O)N1CC2(CC(c3cccc(NC(=O)c4ccccc4)c3)=NO2)C[C@@H]1C(N)=O (some centres unmarked) | 6.02
27 | CC1CCCCN1C(=O)COc1ccc(NC(=O)c2ccco2)cc1 (centres unmarked) | 8.81
28 | O=C(C[n+]1ccncc1)c1ccccc1.[Br-] | 17.2
29 | Cn1nnnc1SCC(=O)NC1CCCCC1 | 3.13
30 | CNc1cc(Cl)nc(SC)n1 | 14.9
31 | CCCCCC(=O)NNC(=O)c1ccc(-c2ccccc2)cc1 | -1.47
32 | Cc1ccc(C)n1-c1ccc(C#N)cn1 | -17.8
33 | COc1nc(OC)nc(N(C)CCO)n1 | 12.2
34 | Cn1c(=O)c2c(ncn2CC(=O)OCc2ccccc2)n(C)c1=O | 1.24
35 | COc1nc(Nc2ccc(OC)c(Cl)c2)nc(OC)n1 | 12.5
36 | C=CCN=C(NC#N)SC | 14.6
37 | COc1ccccc1CN1CCNC(=O)C1CC(=O)NCc1csc(C)n1 (centres unmarked) | 11.5
38 | CN(C)/N=C/c1cn(-c2ccccc2)nc1-c1cccnc1 | 4.34
39 | C=CCC(c1ccccc1)N(C(C)=O)c1ccco1 (centres unmarked) | 14.3
40 | Nc1nnc(SCC(=O)Nc2ccc(N3CCOCC3)cc2)s1 | 0.81
41 | CC(=O)Nc1ccc(C(=O)Nc2ccc3c(c2)OCO3)cc1 | 1.88
42 | Cc1ccc2nc(-c3ccc(NC(=S)NC(=O)C(C)C)cc3)sc2c1 | -0.302
43 | CCNC(=O)CC1C(=O)N(c2ccccc2)C(=O)N1CCc1ccc(OC)c(OC)c1 (centres unmarked) | 20.8
44 | Cc1noc(NS(=O)(=O)c2ccc(N3C(=O)c4ccccc4C3=O)cc2)c1C | 14.9
45 | Cc1cc([N+](=O)[O-])nn1CC(=O)NNC(=S)Nc1ccc([N+](=O)[O-])cc1 | 11.8
46 | O=C(O)CCC(=O)c1ccc2c(c1)CCCC2 | 11.6

Row | SMILES | hERG current change (%, negative = inhibition) at 1uM [%]
47 | COc1ccccc1NC(=O)CSc1nnc(CC(=O)Nc2cccc(C(F)(F)F)c2)n1C | 7.82
48 | COCCNC(=O)C(c1ccc(Cl)cc1)N(C(=O)Cn1nnc2ccccc21)c1cccnc1 (centres unmarked) | 7.46
49 | Cc1nn(CCOc2ccccc2Cl)c(C)c1[N+](=O)[O-] | 11.5
50 | CCCOc1ccc(NC(=O)CC2C(=O)N(c3ccc(OCC)cc3)C(=S)N2C2CC2)cc1 (centres unmarked) | -3.7
51 | O=C1C=C(NCCN2CCOCC2)C(=O)c2cnccc21 | 6.07
52 | Oc1cccc(/C=N/n2c(C3CCCCC3)n[nH]c2=S)c1 | 13.2
53 | Cc1ccc(-n2nc3c(c2NC(=O)CCC2CCCCC2)CS(=O)C3)cc1 (centres unmarked) | 3.94
54 | CCOc1ccccc1NC(=O)C(NC(=O)C1CCC(C)CC1)C(C)C (centres unmarked) | 2.93
55 | COC(=O)c1cc2c(ccn2-c2ccc(F)cc2)n1C(C)C | -0.311
56 | C#CC(C)(CC)NC(=O)c1cc2nc(C3CC3)cc(C(F)(F)F)n2n1 (centres unmarked) | -0.157
57 | O=C(CSc1nc2nc3c(cc2c(=O)n1-c1ccccc1)CCCC3)Nc1cccc2ccccc12 | 1.74
58 | CCn1c(SCC(=O)Nc2ccc3c(c2)OCO3)nnc1C1CC1 | 17.4
59 | NNC(=O)CCCCCCCCCCOCCCCO | 9.18
60 | N#C/C(=C(/O)CN1C(=O)c2ccccc2C1=O)c1nc2ccccc2[nH]1 | 10.8
61 | Cc1cc(C(=O)Nc2nncs2)oc1C | 17
62 | CC(=O)c1cccc(NC2=NCC(C)S2)c1 (centres unmarked) | 7.57
63 | Oc1ccc(Cn2ccnc2)c2cccnc12 | 1.77
64 | CC(C)(C)NC(=O)C(c1c[nH]c2ccccc12)N(C(=O)Cn1nnc(-c2ccc(F)cc2)n1)c1cccc(O)c1 (centres unmarked) | 6.78
65 | COc1ccccc1NC(=O)Nc1nc(CC(=O)N2CCN(c3ccc(F)cc3)CC2)cs1 | 15
66 | Cc1ccc(NC(=O)CCn2c(=S)oc3ccccc32)cc1 | 11
67 | C[N+]1(CCOC(=O)C2(c3ccccc3)CCCC2)CCCCC1 | -3.42
68 | Brc1ccc(-c2ncc(-c3ccccc3)cn2)cc1 | 14.8
69 | CC1(C)N=C(SCC(=O)Nc2ccc(Cl)cc2)C(c2ccc(Cl)cc2)=N1 | -4.94

Row | SMILES | hERG current change (%, negative = inhibition) at 1uM [%]
70 | O=C(CC1(O)C(=O)N(Cc2ccccc2)c2ccccc21)c1ccncc1 (centres unmarked) | 3.35
71 | Cc1cc(C)c(C#N)c(OCC(=O)c2ccccc2)n1 | 10.7
72 | COC(=O)CC1COc2ccccc2N1S(=O)(=O)c1ccc(OC)cc1 (centres unmarked) | 12.1
73 | CCN(CC)S(=O)(=O)c1ccc(N(C)CCc2ccc(OC)c(OC)c2)nc1 | 7.66
74 | CCOc1ccc(C2C(C(=O)O)c3ccccc3C(=O)N2CCN2CCOCC2)cc1 (centres unmarked) | 20.1
75 | COc1ccc(-c2nnc(NC(=O)CSc3ccc(C)cc3)s2)cc1OC | 6.59
76 | O=C(c1ccccc1)c1c[nH]c2cc3c(cc2c1=O)OCCO3 | 2.37
77 | COC(=O)c1sccc1NC(=S)N1C(C)CCCC1C (centres unmarked) | 8.81
78 | CCCOC(=O)c1c(-c2ccc(OC)cc2)oc2ccc(-c3ccc(OC)nc3)cc12 | 14
79 | CC(C)(C)NC(=O)NC(=O)CSc1nnc(-c2ccccc2F)n1N | 11.7
80 | O=C1C=C(c2ccc3c(c2)OCCO3)C[C@@H](c2ccc(F)cc2)C1 | 10.9
81 | CCCNC(=O)CC1C(=O)N(Cc2ccccc2)C(C)c2nc3ccccc3n21 (centres unmarked) | 14.4
82 | CCCCC(=O)Nc1ccc2c(c1)nc(CCNC(=O)c1ccco1)n2C | 6.33
83 | CC(NC(=O)C12CC3CC(CC(O)(C3)C1)C2)c1ccccc1 (centres unmarked) | 9.23
84 | Cn1cccc1C(C(=O)NC1CCCCC1)N(C(=O)Cc1cccs1)c1ccc2c(c1)OCO2 (centres unmarked) | -2.56
85 | Cc1ccc(-c2c[n+](Cc3cccc(Cl)c3)c3n2CCC3)cc1.[Br-] | -0.905
86 | COc1ccc(OCC(O)CNC(=O)Nc2cc(C)cc(C)c2)cc1 (centres unmarked) | 11.7
87 | Cc1ccccc1NC1=C/C(=N\S(=O)(=O)c2ccc(C(=O)O)cc2)c2ccccc2C1=O | 13.3
88 | CCCC(=O)Nc1ccc(S(=O)(=O)Nc2cc(OC)nc(OC)n2)cc1 | 7.96
89 | CCC(=O)N1CC2(C)CN(C(=O)CC)CC(C)(C1)C2 | 7.92
